The inconclusive results got no clear call from the source; some entries with a clear call stand among them for comparison. A potency beside an inconclusive call is a rough fit, not a confirmed value. The source made the active and inactive calls. Calls come from the whole dose curve; as a rule, active = well fitted inhibition curve with a large enough effect in the repeat runs; inconclusive = weak or mixed curves; inactive = no such curve, though single readings can be large or run the other way.
Biological target: Cytochrome P450 2C19 (Homo sapiens) (UniProt P33261)
Assay: Cytochrome P450 Family 2 Subfamily C Member 19 (CYP2C19) small molecule antagonists: luciferase reporter qHTS assay (AID 1671197); note: nearly all actives have a fitted effect of over 65% in size
Conditions: P450-Glo CYP2C19 enzyme, luciferin luminescence, 1 h; series mostly up to 115 µM
Method in brief: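 Compounds were tested on CYP2C19 activity via proluciferin conversion to luciferin. The 37C, 1 h reaction followed NADPH addition; detection reagent stopped it.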
% is set by controls: 0 for no effect and ±100 for the full control effect; potency is the fitted concentration of half-maximal effect; tags give direction and shape of the fitted curve.

UniProt P33261, sequence (P33261 whole entry, looked up): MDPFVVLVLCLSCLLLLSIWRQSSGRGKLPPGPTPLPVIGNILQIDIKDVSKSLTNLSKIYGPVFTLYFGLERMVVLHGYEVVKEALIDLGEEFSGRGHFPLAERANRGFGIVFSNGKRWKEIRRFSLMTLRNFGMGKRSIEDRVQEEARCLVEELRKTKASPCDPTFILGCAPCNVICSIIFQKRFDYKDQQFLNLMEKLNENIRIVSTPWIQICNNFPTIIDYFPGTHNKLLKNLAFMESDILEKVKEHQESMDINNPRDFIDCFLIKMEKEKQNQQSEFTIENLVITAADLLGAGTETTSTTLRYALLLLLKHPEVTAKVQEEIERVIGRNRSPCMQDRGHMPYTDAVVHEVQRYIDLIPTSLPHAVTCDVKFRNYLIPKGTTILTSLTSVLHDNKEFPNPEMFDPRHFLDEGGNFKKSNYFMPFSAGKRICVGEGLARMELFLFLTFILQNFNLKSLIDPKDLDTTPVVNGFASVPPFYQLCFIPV

SMILES	Potency
CCOC(=O)NNc1ccc(N(CC)CC(C)O)nn1 (stereo unspecified)	inconclusive: 38.9 µM [inhibitor, single point]
CN(C)CCOc1ccccc1Cc1ccccc1	inconclusive: 8.71 µM [inhibitor, single point]
O=C(CCS)OCC(COC(=O)CCS)(COC(=O)CCS)COC(=O)CCS	active: 15.9 µM
CCC=CC#N	inconclusive: 86.7 µM [inhibitor, single point]
CCCCCCCCCC(=O)OCC	active: 56.4 µM
CNC[C@H](O)[C@@H](O)[C@H](O)[C@H](O)CO	inconclusive: 3.89 µM [inhibitor, full curve]
Cc1c(C(N)=O)cc([N+](=O)[O-])cc1[N+](=O)[O-]	inactive
OC/C=C/CO	inactive
CCCCCCCC/C=C\CCCCCCCC(=O)OCC	inconclusive: 89.4 µM [inhibitor, single point]
NCCNCCO	inactive
CC(=O)C(C)=O	inactive
CCOC(=O)c1ccc(O)c(O)c1	inactive
COc1cc(C(=O)NS(=O)(=O)c2ccccc2C)ccc1Cc1cn(C)c2ccc(NC(=O)OC3CCCC3)cc12	inactive
C=C(C)C(=O)OCCCCCCCCCCCCC	inconclusive: 88.3 µM [inhibitor, single point]
CC(O)c1ccccc1 (stereo unspecified)	inactive

Biological target: Cytochrome P450 2C9 (Homo sapiens) (UniProt P11712)
Assay: Cytochrome P450 Family 2 Subfamily C Member 9 (CYP2C9) small molecule antagonists: luciferase reporter qHTS assay (AID 1671198); note: nearly all actives have a fitted effect of over 50% in size
Conditions: P450-Glo CYP2C9 enzyme assay, luciferin luminescence; series mostly up to 115 µM
Method in brief: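 P450-Glo proluciferin substrate with CYP2C9 enzyme; 10 min RT preincubation, then NADPH regeneration 1 h at 37C; luciferin detection reagent 20 min RT, luminescence in relative luminescence units.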

UniProt P11712, sequence (P11712 whole entry, looked up): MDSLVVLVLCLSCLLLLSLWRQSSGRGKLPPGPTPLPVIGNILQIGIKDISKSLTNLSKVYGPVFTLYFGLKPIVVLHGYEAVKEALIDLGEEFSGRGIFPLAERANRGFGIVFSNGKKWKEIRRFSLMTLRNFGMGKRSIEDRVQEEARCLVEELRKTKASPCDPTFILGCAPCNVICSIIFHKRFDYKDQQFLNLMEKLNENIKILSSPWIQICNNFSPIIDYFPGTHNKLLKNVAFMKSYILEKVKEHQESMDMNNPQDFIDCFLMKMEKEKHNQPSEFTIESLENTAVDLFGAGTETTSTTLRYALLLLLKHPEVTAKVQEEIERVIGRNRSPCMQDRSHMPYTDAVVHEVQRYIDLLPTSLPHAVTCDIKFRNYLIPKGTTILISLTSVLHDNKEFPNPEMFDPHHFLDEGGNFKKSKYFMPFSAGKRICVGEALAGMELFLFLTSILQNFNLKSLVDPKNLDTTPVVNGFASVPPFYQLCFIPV

SMILES	Potency	activity change, negative = inhibition
Cc1cc(N)c(S(=O)(=O)O)cc1Cl	active: 28.6 µM	
COC(=O)c1ccc(O)cc1	inactive	
CC(C)(C)C(=O)OCOC(=O)C1N2C(=O)CC2S(=O)(=O)C1(C)C (stereo unspecified)	inconclusive: 34.7 µM [inhibitor, partial curve]	
O[C@@H]1CO[C@H]2[C@@H]1OC[C@@H]2O	inactive	
CCCCCCCCCCCCCCCC(=O)OC		inactive: 2.75% [at 23.6 µM]
CC(=O)CC(=O)Nc1ccc2[nH]c(=O)[nH]c2c1	inconclusive: 56.4 µM [inhibitor, partial curve, poor fit]	
CC(C)CCCCCCCOC(=O)CCCCC(=O)OCCCCCCCC(C)C	inconclusive: 92.8 µM [inhibitor, partial curve, poor fit]	
CC1COc2ccccc2N1 (stereo unspecified)	inconclusive: 89.4 µM [inhibitor, partial curve]	
CCNc1nc(NC(C)CC)nc(OC)n1 (stereo unspecified)	inactive	
CCCCCCCC/C=C\CCCCCCCCO	inconclusive: 31.7 µM [inhibitor, full curve, poor fit]	
O=C(O)c1ccc(-n2nc(-c3ccccc3O)nc2-c2ccccc2O)cc1	inconclusive: 38.9 µM [inhibitor, partial curve, poor fit]	
CC(C)C(=O)OCCOc1ccccc1	active: 39.9 µM	
Cc1ccc(S(N)(=O)=O)cc1	inconclusive: 70.6 µM [inhibitor, partial curve] and inactive	
CO/N=C(/C(=O)N[C@@H]1C(=O)N2C(C(=O)O)=C(COC(N)=O)CS[C@H]12)c1ccco1	inconclusive: 35.4 µM [inhibitor]	
CN(C)c1ccc(C2(c3ccc(N(C)C)cc3)OC(=O)c3cc(N(C)C)ccc32)cc1	active: 3.16 µM	
CN1CCN(c2cc3c(cc2F)c(=O)c(C(=O)O)cn3-c2ccc(F)cc2)CC1	inactive	
O=C(OCC(COC(=O)c1cccnc1)(COC(=O)c1cccnc1)COC(=O)c1cccnc1)c1cccnc1	inconclusive: 4.9 µM [inhibitor, full curve]	
COc1c(N2C[C@@H]3CCCN[C@@H]3C2)c(F)cc2c(=O)c(C(=O)O)cn(C3CC3)c12	inactive	
O=C1c2c(O)cccc2Cc2cccc(O)c21	inconclusive: 71 µM [inhibitor, partial curve, poor fit]	
CSc1ccc(C(=O)c2[nH]c(=O)[nH]c2C)cc1	inactive	
CCCCC[C@H](O)/C=C/[C@H]1[C@H](O)CC(=O)[C@@H]1C/C=C\CCCC(=O)O	inactive	
CCOC(=O)c1ccc(I)cc1	inconclusive: 40.3 µM [inhibitor, partial curve]	
CS(=O)(=O)c1ccc(-c2cn3ccccc3n2)cc1	inconclusive: 13.8 µM [inhibitor, partial curve]	
CC(C)c1cccc(C(C)C)c1N	inconclusive: 25.2 µM [inhibitor, partial curve, poor fit]	
N#C[C@@H]1C[C@@H]2C[C@@H]2N1C(=O)[C@@H](N)C12CC3CC(CC(O)(C3)C1)C2	inactive	

Biological target: Cytochrome P450 1A2 (Homo sapiens) (UniProt P05177)
Assay: Cytochrome P450 Family 1 Subfamily A Member 2 (CYP1A2) small molecule antagonists: luciferase reporter qHTS assay (AID 1671199); note: nearly all actives have a fitted effect of over 50% in size
Conditions: P450-Glo CYP1A2 enzyme, luciferin luminescence, 1 h; series mostly up to 115 µM
Method in brief: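 Quantitative high-throughput format using the P450-Glo CYP1A2 system. Reaction initiated by NADPH regeneration solution, 1 h at room temperature, then stopped with detection reagent; luminescence measured 20 min later.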

UniProt P05177, sequence (P05177 whole entry, looked up): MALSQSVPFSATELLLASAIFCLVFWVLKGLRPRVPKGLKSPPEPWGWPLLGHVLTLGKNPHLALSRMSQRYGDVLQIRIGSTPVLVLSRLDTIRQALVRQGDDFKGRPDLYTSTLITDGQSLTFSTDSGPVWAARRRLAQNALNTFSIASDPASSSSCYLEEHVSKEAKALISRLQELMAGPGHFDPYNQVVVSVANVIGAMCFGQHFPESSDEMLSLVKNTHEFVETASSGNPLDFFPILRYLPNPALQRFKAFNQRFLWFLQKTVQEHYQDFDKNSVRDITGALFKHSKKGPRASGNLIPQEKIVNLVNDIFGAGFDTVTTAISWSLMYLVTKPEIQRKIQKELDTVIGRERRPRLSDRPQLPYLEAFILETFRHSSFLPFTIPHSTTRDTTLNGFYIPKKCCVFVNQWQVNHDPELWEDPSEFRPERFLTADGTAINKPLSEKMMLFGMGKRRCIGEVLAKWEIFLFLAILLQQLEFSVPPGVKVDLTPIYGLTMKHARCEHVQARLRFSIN

SMILES	Potency
CCOC(=O)NNc1ccc(N(CC)CC(C)O)nn1 (stereo unspecified)	inactive
CN(C)CCOc1ccccc1Cc1ccccc1	inconclusive: 3.23 µM [inhibitor, full curve, poor fit]
CCC=CC#N	inconclusive: 68.8 µM [inhibitor, partial curve, poor fit]
CCCCCCCCCC(=O)OCC	inconclusive: 39.9 µM [inhibitor, partial curve]
CNC[C@H](O)[C@@H](O)[C@H](O)[C@H](O)CO	inactive
Cc1c(C(N)=O)cc([N+](=O)[O-])cc1[N+](=O)[O-]	inconclusive: 35.6 µM [inhibitor, partial curve] and inactive
OC/C=C/CO	inactive
CCCCCCCC/C=C\CCCCCCCC(=O)OCC	inconclusive: 71 µM [inhibitor, partial curve]
NCCNCCO	inactive
CC(=O)C(C)=O	inactive
CC(O)c1ccccc1 (stereo unspecified)	inconclusive: 40.7 µM [inhibitor, partial curve]

Source: PubChem BioAssay (Tox21)
